Results on 44 compounds are retold here after ChEMBL document CHEMBL4888484, “Replenishing the malaria drug discovery pipeline: Screening and hit evaluation of the MMV Hit Generation Library 1 (HGL1) against asexual blood stage Plasmodium falciparum ,using a nano luciferase reporter read-out” (2022).

SMILES strings stand for the structures. Screen size: about 150,000 compounds; about 540 (0.36%) showed an effect of 50% or more. This is one part of the list.

This experiment deals with Plasmodium falciparum. Briefly: Primary screen in NF54 nanoGlo assay, in single point, at 2uM, 72h; a lower Z score goes with more inhibition. In kind it is functional, Erythrocyte. Particulars: timepoint 72 hour.
By % Inhibition is commonly meant the change of the read-out against control, counted positive when it falls. Take `O=S(=O)(C[C@H]1CCCCO1)NCCc1c[nH]c2ccc(F)cc12`: the “% Inhibition” value is recorded as -2% and the Z score is recorded as 0.38.
For `CC(Cn1cc(Br)cn1)C(=O)NCC1CCCO1` (stereo not drawn), in that order: 0% and -0.04.
For `CC(=O)N1CCN(C(=O)c2coc(CN(CCc3c[nH]c4ccccc34)Cc3ccc(F)cc3F)n2)CC1`, in that order: 3% and -0.57.
With `Cn1ncc(NC(=O)Cc2ccc(Cl)cc2)c(N2CCOCC2)c1=O`, the “% Inhibition” value is reported as -6% and the Z score is recorded as 1.21.
For `CC[C@H](NC(=O)N(C)CC1(N(C)C)CCC1)c1nccs1`, in that order: 3% and -0.36.
In the same order, the values of `COc1nc2c(cc1CNC(=O)c1cc(C)c[nH]1)C(=O)N(C1CCCC1)C2` are 6% and -1.2.
For `Cn1cc(CCNC(=O)C2=NN(c3ccccc3)[C@H](C(N)=O)C2)cn1`, in that order: 35% and -4.71.
Take `O=C(Cc1ccccc1)N1CC(OCc2cccc(F)c2)C1`: the “% Inhibition” value is listed as -21% and the Z score is 1.91.
For the compound `CN(CC(N)=O)C(=O)Cc1c(F)ccc(Br)c1F`, the “% Inhibition” value is given as -6% and the Z score was 1.02.
For `CC(C)Cn1cncc1CN1CCc2[nH]nc(-c3ccc(F)c(F)c3)c2C1`, in that order: -6% and 0.8.
For `Cc1cc(-n2cnnc2-c2ccc(O)cc2)n(C)n1`, in that order: -9% and 1.35.
Regarding `CC1CCCC1NC(=O)c1n[nH]c(=O)c2ccccc12` (stereo not drawn), the “% Inhibition” value is on record as -18% and the Z score worked out at 1.6.
In the same order, the values of `COC[C@@H](O)CCNC(=O)Nc1cc(Br)c(F)cc1C` are -29% and 3.37.
For `Cc1cc(C(=O)N2CC(S(=O)(=O)N3CCc4ccccc43)C2)on1`, in that order: -13% and 1.2.
In the same order, the values of `O=C(NCCc1ccccc1F)c1cn(CCC2CCCCC2)nn1` are -13% and 1.87.
For `O=C(Cn1cnc2c1CCCC2)N1CCOCC(F)(F)C1`, the “% Inhibition” value is reported as -6% and the Z score is on record as 0.79.
In the same order, the values of `CS(=O)(=O)N(CC1CCC1)c1ccccc1` are -8% and 1.29.
For `CC(C)n1ccc(CCNC(=O)c2ccc(N3CC=CC3)cc2)n1`, in that order: -3% and 0.4.
With `CN(C(=O)CCc1cccc(F)c1)S(C)(=O)=O`, the “% Inhibition” value is 0% and the Z score is on record as -0.02.
For `CN(C)C(=O)CN1CC[C@H](NC(=O)c2ccc(C(F)(F)F)cc2)[C@@H](O)C1`, the “% Inhibition” value is -8% and the Z score worked out at 1.53.
`COc1ccccc1Nc1nc(N)nc(COC(=O)[C@H]2CC(=O)N(c3ccc(C)cc3)C2)n1`: the “% Inhibition” value was -2% and the Z score is 0.22.
In the same order, the values of `CCCCNC(=O)[C@H](C)N1CC(S(C)(=O)=O)C1` are -13% and 1.81.
Consider `CC(NC(=O)C1CCCO1)c1ccccn1` (stereo not drawn), for which the “% Inhibition” value is listed as -13% and the Z score stood at 1.94.
In the same order, the values of `CC1(C)Cc2cccc([C@H]3CC(=O)Nc4n[nH]cc43)c2O1` are -18% and 3.38.
`COc1cc(CN2CC(N3CCOCC3)C2)ccc1F`: the “% Inhibition” value is on record as 5% and the Z score was -0.68.
In the case of `CCN(C)C1(CNC(=O)c2cccc(-c3ncc(F)c(NC)n3)c2)CCCC1`, the “% Inhibition” value is on record as 3% and the Z score was -0.53.
In the same order, the values of `Cc1cc(S(=O)(=O)Nc2c(C(F)F)n[nH]c2C)c(C)s1` are -1% and 0.12.
For `CCS(=O)(=O)c1ccc(O)c(NCc2ccoc2C)c1`, in that order: -5% and 0.51.
In the same order, the values of `CCOC(=O)C1CCN([C@H]2CS(=O)(=O)C[C@@H]2S(=O)(=O)c2cc(C)ccc2OC)CC1` are -9% and 1.21.
Turning to `Cc1cc(C)c(S(=O)(=O)N2CCC3(CC2)NCCN=C3NCc2ccccc2C)c(C)c1`, the “% Inhibition” value is reported as -3% and the Z score came out at 0.35.
For `CCCNc1ncc(CN2CCc3nocc3C2)cn1`, in that order: -13% and 1.73.
For the compound `Cc1nc(C(C)C)sc1C(=O)N1CC[C@@H]2OCc3cnnn3[C@@H]2C1`, the “% Inhibition” value is -6% and the Z score was 1.23.
For `O=S(=O)(C1CC1)N1CC2CC1CO2` (stereo not drawn), in that order: -9% and 1.11.
In the same order, the values of `C/C=C(\C)CN1CCC2(CCC(=O)N(Cc3cccnc3)C2)CC1` are -21% and 3.88.
For `Cn1ncc2c(N[C@@H]3CCC(=O)N[C@H]3C3CCCO3)ncnc21` (stereo partly drawn), in that order: 0% and -0.08.
Regarding `Cc1cccc(Cl)c1NC(=O)N1CCN2C(=O)NC[C@H]2C1`, the “% Inhibition” value is on record as -11% and the Z score was determined as 0.97.
In the same order, the values of `O=C1CN(C(=O)[C@@H]2CCCN2c2ccccc2)CCN1` are -2% and 0.29.
For `CCOC1CC1C(=O)N1CCCCCC1c1noc(-c2cnn(C)c2)n1` (stereo not drawn), in that order: -3% and 0.64.
For `CCN1CCn2c(nn(CC(=O)Nc3cc(C)on3)c2=O)C1=O`, in that order: -16% and 1.86.
As for `Cc1cc(N[C@H]2CCc3nnnn3CC2)nc(C)n1`, the “% Inhibition” value is listed as -8% and the Z score was 1.56.
In the same order, the values of `CC(CCc1ccccc1)NS(=O)(=O)CC1CCOC1` (stereo not drawn) are -11% and 1.86.
For `CCc1ccc(-c2nccn2-c2ccc3c(c2)OCO3)nc1`, in that order: 9% and -1.13.
For `C=CCCC(=O)N1CCC[C@H](Oc2ccnc(C)n2)C1`, in that order: -6% and 1.11.
Turning to `Cc1ccc(-c2cc(C(F)(F)F)nn2-c2nc(-c3ccc(F)cc3)cs2)cc1`, the “% Inhibition” value was found to be 6% and the Z score was -0.93.
